In the supplement of paper PMC4604168 (melanoma cell lines):
The list shows a part of the results. Most values come without repeats; read them as rough.

Assays:
Assay in all cases: cell count relative to DMSO control; melanoma cells; higher = more viable cells
Details in all cases: library dose: standard library concentration; 72 h
501Mel = test system: 501Mel
A101D = test system: A101D
A2058 = test system: A2058
A375 = test system: A375
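Further: cells treated in 1,536-well plates, then fixed and DAPI-stained, with nuclei counted from automated high-throughput microscope images.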

Row | Structure (SMILES) | cell count (501Mel) [%] | cell count (A101D) [%] | cell count (A2058) [%] | cell count (A375) [%]
1 | CN(NC(=O)CC(=O)NN(C)C(=S)c1ccccc1)C(=S)c1ccccc1 + O=C(O)C(=O)Nc1sc2c(c1C(=O)O)CCNC2 [TCS401] (first compound 0.03 µM, partner dose 8.33333 µM) | 9.12 | 74.6 | 14.7 | 184
2 | CC(C)(C)c1cnc(CSc2cnc(NC(=O)C3CCNCC3)s2)o1 + Oc1cc(-c2nc(-c3ccccc3)[nH]c2-c2ccncc2)ccc1Cl [L779450] (first compound 0.05 µM, partner dose 1 µM) | 57.7 | 68.1 | 93.7 | 93.3
3 | CCc1ccc(CCOc2ccc(CC3SC(=O)NC3=O)cc2)nc1 (centres undefined) [pioglitazone] + O=c1cc(-c2cccc3c2Sc2ccccc2S3)oc(N2CCOCC2)c1 [KU55933] (first compound 10 µM, partner dose 5 µM) | 91.4 | 88.2 | 93.1 | 128
4 | CCCCCCCCc1ccc(CCC(N)(CO)CO)cc1 [fingolimod] + CCc1ccc(CCOc2ccc(CC3SC(=O)NC3=O)cc2)nc1 [pioglitazone] (first compound 10 µM, partner dose 10 µM) | 0.845 | 3.96 | 3.4 | 32.5
5 | NC(=O)c1ccc(N(C(N)=O)c2c(F)cccc2F)nc1-c1ccc(F)cc1F + O=C(O)C(=O)Nc1sc2c(c1C(=O)O)CCNC2 [TCS401] (first compound 2 µM, partner dose 8.33333 µM) | 80.8 | 101 | 91.2 | 148
6 | CCCCCCCCc1ccc(CCC(N)(CO)CO)cc1 [fingolimod] + Cn1cc(/C=C2\C(=O)Nc3cccnc32)c2ccccc21 [GW441756] (first compound 10 µM, partner dose 2 µM) | 0.287 | 5.4 | 5.82 | 20
7 | CN(NC(=O)CC(=O)NN(C)C(=S)c1ccccc1)C(=S)c1ccccc1 + O=C1NC(=O)/C(=C/c2ccc(-c3ccc(F)cc3O)o2)S1 [AS252424] (first compound 0.03 µM, partner dose 5 µM) | 13.6 | 61.2 | 17.8 | 158
8 | CCc1ccc(CCOc2ccc(CC3SC(=O)NC3=O)cc2)nc1 (centres undefined) [pioglitazone] + COC(=O)c1sccc1S(=O)(=O)Nc1ccc(Nc2ccccc2)cc1OC [GSK0660] (first compound 10 µM, partner dose 5 µM) | 102 | 104 | 87.7 | 125
9 | CCCCCCCCc1ccc(CCC(N)(CO)CO)cc1 [fingolimod] + c1cc(-c2cnn3cc(-c4ccc(OCCN5CCCCC5)cc4)cnc23)ccn1 [Dorsomorphin] (first compound 10 µM, partner dose 2 µM) | 0.962 | 7.67 | 5.95 | 69.7
10 | CCc1ccc(CCOc2ccc(CC3SC(=O)NC3=O)cc2)nc1 (centres undefined) [pioglitazone] + Oc1nc(-c2ccc(C(F)(F)F)cc2)nc2c1CSCC2 [XAV939] (first compound 10 µM, partner dose 10 µM) | 102 | 68.2 | 76.2 | 98.7
11 | CC(C)(C)c1cnc(CSc2cnc(NC(=O)C3CCNCC3)s2)o1 + N#Cc1c(O)c2c(-c3ccc(-c4ccccc4O)cc3)csc2[nH]c1=O [A769662] (first compound 0.05 µM, partner dose 10 µM) | 102 | 81.8 | 94 | 102
12 | Cc1ccc(NC(=O)c2cccc(N(C)C)c2)cc1NC(=O)c1ccc(O)cc1 + COc1ccc(COc2ccc(Cc3cnc(N)nc3N)cc2OC)cc1 [GW2580] (first compound 10 µM, partner dose 5 µM) | 62.2 | 109 | 75.8 | 64.9
13 | CCc1ccc(CCOc2ccc(CC3SC(=O)NC3=O)cc2)nc1 (centres undefined) [pioglitazone] + CCN(CC)CCCCNc1ncc2cc(-c3cc(OC)cc(OC)c3)c(NC(=O)NC(C)(C)C)nc2n1 [PD173074] (first compound 10 µM, partner dose 0.5 µM) | 92.2 | 91.9 | 86.2 | 107
14 | Cc1ccc(NC(=O)c2cccc(N(C)C)c2)cc1NC(=O)c1ccc(O)cc1 + N#Cc1c(O)c2c(-c3ccc(-c4ccccc4O)cc3)csc2[nH]c1=O [A769662] (first compound 10 µM, partner dose 10 µM) | 60.2 | 96.7 | 93.6 | 126
15 | CCc1ccc(CCOc2ccc(CC3SC(=O)NC3=O)cc2)nc1 (centres undefined) [pioglitazone] + c1cc(-c2cnn3cc(-c4ccc(OCCN5CCCCC5)cc4)cnc23)ccn1 [Dorsomorphin] (first compound 10 µM, partner dose 2 µM) | 57.3 | 72.4 | 78.3 | 84.6
16 | Cc1ccc(NC(=O)c2cccc(N(C)C)c2)cc1NC(=O)c1ccc(O)cc1 + O=C(Nc1ccccc1)c1cc([N+](=O)[O-])ccc1Cl [GW9662] (first compound 10 µM, partner dose 10 µM) | 69 | 64.8 | 88.7 | 115

Row | Structure (SMILES) | cell count (501Mel) [%] | cell count (A101D) [%] | cell count (A2058) [%] | cell count (A375) [%]
17 | COc1cc2c(Oc3ccc4[nH]c(C)cc4c3F)ncnc2cc1OCCCN1CCCC1 [cediranib] + COc1ccc2c(c1)CCC1C2CCC2(C)C(NCCCCCCN3C(=O)C=CC3=O)CCC12 [U73122] (first compound 2 µM, partner dose 2 µM) | 87.5 | 85.5 | 92.2 | 91.3
18 | NC(=O)c1ccc(N(C(N)=O)c2c(F)cccc2F)nc1-c1ccc(F)cc1F + c1cc(-c2cnn3cc(-c4ccc(OCCN5CCCCC5)cc4)cnc23)ccn1 [Dorsomorphin] (first compound 2 µM, partner dose 2 µM) | 50.2 | 104 | 85.1 | 120
19 | CCCCCCCCc1ccc(CCC(N)(CO)CO)cc1 [fingolimod] + COc1cc2ncnc(Nc3ccc(Oc4ccccc4)cc3)c2cc1OC [SrcI1] (first compound 10 µM, partner dose 10 µM) | 0.364 | 6.69 | 4.13 | 76.3
20 | Cc1ccc(NC(=O)c2cccc(N(C)C)c2)cc1NC(=O)c1ccc(O)cc1 + CCN(CC)CCCCNc1ncc2cc(-c3cc(OC)cc(OC)c3)c(NC(=O)NC(C)(C)C)nc2n1 [PD173074] (first compound 10 µM, partner dose 0.5 µM) | 67.9 | 99.1 | 86.2 | 103
21 | CC(C)(C)c1cnc(CSc2cnc(NC(=O)C3CCNCC3)s2)o1 + COc1cc(N2CCC(N3CCN(C)CC3)CC2)ccc1Nc1ncc(Cl)c(Nc2ccccc2S(=O)(=O)C(C)C)n1 [NVP-TAE684] (first compound 0.05 µM, partner dose 0.4 µM) | 67.5 | 71.2 | 40 | 88
22 | CN(NC(=O)CC(=O)NN(C)C(=S)c1ccccc1)C(=S)c1ccccc1 + Cn1cc(/C=C2\C(=O)Nc3cccnc32)c2ccccc21 [GW441756] (first compound 0.03 µM, partner dose 2 µM) | 15.8 | 80.6 | 24.4 | 170
23 | CC(C)(C)c1cnc(CSc2cnc(NC(=O)C3CCNCC3)s2)o1 + COc1ccc(COc2ccc(Cc3cnc(N)nc3N)cc2OC)cc1 [GW2580] (first compound 0.05 µM, partner dose 5 µM) | 107 | 62.8 | 105 | 83.2
24 | CCc1ccc(CCOc2ccc(CC3SC(=O)NC3=O)cc2)nc1 (centres undefined) [pioglitazone] + CC(C)CCN1c2nc(Nc3cc(F)c(O)c(F)c3)ncc2N(C)C(=O)C1C [BID1870] (first compound 10 µM, partner dose 1 µM) | 72.9 | 56.8 | 91.4 | 92.5
25 | CC(C)(C)c1cnc(CSc2cnc(NC(=O)C3CCNCC3)s2)o1 + O=C(Nc1ccccc1)c1cc([N+](=O)[O-])ccc1Cl [GW9662] (first compound 0.05 µM, partner dose 10 µM) | 81.6 | 83.5 | 74.3 | 117
26 | NC(=O)c1ccc(N(C(N)=O)c2c(F)cccc2F)nc1-c1ccc(F)cc1F + O=C1NC(=O)/C(=C/c2ccc(-c3ccc(F)cc3O)o2)S1 [AS252424] (first compound 2 µM, partner dose 5 µM) | 94.8 | 100 | 99 | 150
27 | CCCCCCCCc1ccc(CCC(N)(CO)CO)cc1 [fingolimod] + N#Cc1c(O)c2c(-c3ccc(-c4ccccc4O)cc3)csc2[nH]c1=O [A769662] (first compound 10 µM, partner dose 10 µM) | 0.6 | 9.79 | 8.05 | 50.9
28 | CN(NC(=O)CC(=O)NN(C)C(=S)c1ccccc1)C(=S)c1ccccc1 + COc1ccc(COc2ccc(Cc3cnc(N)nc3N)cc2OC)cc1 [GW2580] (first compound 0.03 µM, partner dose 5 µM) | 26.1 | 56.9 | 8.83 | 111
29 | CN(NC(=O)CC(=O)NN(C)C(=S)c1ccccc1)C(=S)c1ccccc1 + O=C(Nc1ccccc1)c1cc([N+](=O)[O-])ccc1Cl [GW9662] (first compound 0.03 µM, partner dose 10 µM) | 2.12 | 51 | 10.5 | 98
30 | COc1cc2c(Oc3ccc4[nH]c(C)cc4c3F)ncnc2cc1OCCCN1CCCC1 [cediranib] + Cn1cc(/C=C2\C(=O)Nc3cccnc32)c2ccccc21 [GW441756] (first compound 2 µM, partner dose 2 µM) | 60.3 | 90.1 | 90.1 | 138
31 | CCc1ccc(CCOc2ccc(CC3SC(=O)NC3=O)cc2)nc1 (centres undefined) [pioglitazone] + COc1ccc(-c2ccc3c(N4CCOCC4)nc(N4C[C@@H](C)O[C@@H](C)C4)nc3n2)cc1CO [KU0063794] (first compound 10 µM, partner dose 0.1 µM) | 88.3 | 101 | 92.4 | 110
